Laboratory results as given in PubChem BioAssay AID686971 (National Center for Advancing Translational Sciences (NCATS), 2013).
In all, about 360,000 compounds went through this assay and about 7,500 (2.1%) were called active. Inconclusive means that the source gave no clear call. Such entries were picked first, then a sample of the others. The call rests on the fitted dose curve; in most records, active means well fitted cell-killing curve with a large enough effect; inconclusive means small, poorly fitted or top-dose-only effect, or effect the other way, or another doubt; inactive means no such curve, though single readings can be large or run the other way. Potencies of inconclusive entries are left out as doubtful fits.

Assay: qHTS for induction of synthetic lethality in tumor cells producing 2HG: qHTS for the HT-1080-IDH1KD cell line;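 on activity, negative = toxicity: 0% = DMSO wells and -100% = cell-free medium wells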
Conditions: HT-1080 IDH1 knockdown viability, ATP luminescence, 48 h; activity, negative = toxicity: at 46.1 µM (top of the series) unless noted
In short: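 Knockdown cells (IDH1KD HT-1080) received compounds 2 h after plating at 750 cells/well and were kept 48 h at 37 °C in 5% FBS RPMI. A CellTiter-Glo luminescence read gave % activity for curve fitting.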
Potency means the concentration at half of the fitted maximal effect; tags describe the fitted curve by direction and shape.

Structure (SMILES)	Potency	activity, negative = toxicity
O=[N+]([O-])c1cc(S(=O)(=O)N2CCCC2)ccc1O	inactive	–
O=[N+]([O-])c1cc(S(=O)(=O)C(F)(F)F)ccc1Sc1nc2ccccc2[nH]1	active: 18.4 µM	–
O=C(N/N=C\c1cccnc1)c1cc(-c2ccccc2)nc2c(Cl)cccc12	active: 9.2 µM	–
Cc1cc(C(C)(C)C)cc(C)c1S(=O)(=O)N1CC(=O)Nc2ccccc21	inconclusive [cytotoxic, single point]	–
Cc1ccc(NS(=O)(=O)c2ccc(-c3cnc(C4CC4)o3)cc2)cc1	inconclusive [cytotoxic, single point]	–
O=C(O)CCNc1cc(N2CCN(C(=O)c3ccco3)CC2)c2noc3c2c1C(=O)c1ccccc1-3	inconclusive [cytotoxic, partial curve]	–
Cc1ccc(S(=O)(=O)NCC(=O)OCc2csc(-c3ccccc3)n2)cc1	inactive	–
CCO[C@H]1OC(C(=O)NC2CC2)=C[C@@H](c2ccccc2)[C@@H]1CCCO	inconclusive [cytotoxic, single point]	–
O=C(CN1CCCC1)Nc1c2c(nc3ccccc13)N(Cc1ccccc1)CC2	inconclusive [cytotoxic, single point]	–
Cc1ccccc1C(=O)N1CCc2c([nH]c3ccccc23)C1C(F)(F)F (configuration not stated)	inconclusive [cytotoxic, partial curve, poor fit]	–
OCC1(Cc2ccccc2Cl)CCN(C/C=C/c2ccccc2)CC1	inactive	–
CCOc1ccc(-n2c(SCc3nc(-c4cccs4)no3)nnc2-c2ccncc2)cc1	inconclusive [cytotoxic, single point]	–
COC(=O)CNC(c1ccccc1Cl)c1cc(Br)ccc1NS(=O)(=O)c1ccc(C)cc1 (configuration not stated)	inactive	–
COc1ccc(/C=N/NC(=O)NC23CC4CC(CC(C4)C2)C3)c(OC)c1	inconclusive [cytotoxic, single point]	–
CC(=O)c1cccc(NS(=O)(=O)c2ccc(C(=O)Nc3ccccc3)cc2)c1	inconclusive [cytotoxic, partial curve]	–
Cc1cc(NC(=O)COc2cccnc2[N+](=O)[O-])no1	inactive	–
O=C1CCCN1c1ccc(S(=O)(=O)NCCc2ccc(Cl)cc2)cc1	inconclusive [cytotoxic, partial curve, poor fit]	–
CCC/C=C/c1ccc(CN2C(C(C)C)C(=O)N(Cc3cn(Cc4ccco4)nn3)CCS2(=O)=O)cc1 (configuration not stated)	inconclusive [cytotoxic, single point]	–
CCCCCCN1C[C@@H](O)[C@H](n2cc(-c3ccc(F)cc3)nn2)C[C@@H]1c1ccccc1	inactive	–
Cc1ccc(S(=O)(=O)NC2(C(F)(F)F)C(=O)Nc3c2c(=O)n(C)c(=O)n3C)cc1 (configuration not stated)	inconclusive [rising, single point]	–
C[C@H](CO)N1C[C@H](C)[C@@H](CN(C)C(=O)NC2CCCCC2)Oc2ccc(NC(=O)Nc3ccc(C(F)(F)F)cc3)cc2C1=O	inconclusive [cytotoxic, single point]	–
COc1ccc(C(=O)Nc2nc3ccccc3s2)c(OC)c1	active: 20.6 µM	–
NC(Cc1ccc(Cl)cc1)c1csc(NC(=O)NCC2CCCCC2)n1 (configuration not stated)	active: 16.4 µM	–

Structure (SMILES)	Potency	activity, negative = toxicity
CC(O)(c1ccccc1)c1nc(-c2cc3ccccc3o2)cs1 (configuration not stated)	inconclusive [cytotoxic, partial curve]	–
CC(C)n1cc(/C=C/c2cc[n+](C)cc2)c2ccccc21	active: 9.2 µM	–
CCn1c(N2CCC(Cc3ccccc3)CC2)nc2c1c(=O)[nH]c(=O)n2C	inconclusive [cytotoxic, partial curve]	–
CCOc1ccccc1C(=O)NCC(=O)N1CCN(Cc2ccc3c(c2)OCO3)CC1	–	inconclusive: 2.06%
Cc1[nH]n(-c2ccc([N+](=O)[O-])cc2)c(=O)c1C=NCCN1CCN(C(=O)c2ccccc2)CC1	inconclusive [cytotoxic, partial curve]	–
COc1ccc(C(=O)NC(=S)NNC(=O)c2ccco2)cc1	inconclusive [cytotoxic, partial curve]	–
CCOc1cc(-c2noc(N)c2C(=O)OC)cc(OCC)c1OCC	inactive	–
O=C1C=C(C2OC(CO)C(O)C2O)C(=O)N1 (configuration not stated)	inactive	–
CC(C)n1ncc2c(C(=O)Nc3cccc(C#N)c3)cc(C3CC3)nc21	inconclusive [cytotoxic, single point]	–
CCCCCCCCCC[n+]1cccc2c3ccccc3ccc21	active: 2.31 µM	–
COC(=O)[C@]12CCCCC=C1N(CCC1=CCCCC1)C(=O)[C@H](CC(=O)NCC1CCCCC1)C2	inconclusive [cytotoxic, single point]	–
CC(C)(C)c1ccc(C(=O)N2CCC2(C)C(=O)Nc2cccc3ccccc23)cc1 (configuration not stated)	inconclusive [cytotoxic, single point]	–
COc1cc(NC(=O)Cn2ccsc2=N)c(C)cc1[N+](=O)[O-]	inconclusive [cytotoxic, full curve, poor fit]	–
CCn1ncc(C2=NOC(C(=O)NCc3ccc(OC)cc3)C2)c1C (configuration not stated)	inconclusive [cytotoxic, single point]	–
O=C1/C(=C/c2ccncc2)SC(=S)N1Nc1ccccc1	active: 5.8 µM	–
COC(=O)C1=C(C(=O)OC)C2C=CC1C1C(OC(C)=O)C(OC(C)=O)C21 (configuration not stated)	inactive	–
Cc1ccc(C(=O)N/C(=C\c2ccc(-c3ccccc3[N+](=O)[O-])o2)C(=O)NCCCN2CCOCC2)cc1	inconclusive [cytotoxic, partial curve]	–
O=C(CNC(=O)c1ccccc1)N/N=C/c1cc(Br)ccc1O	active: 16.4 µM	–
CCOc1ccc(Cc2nc(N)nc(N)n2)cc1	inactive	–
CCOC(=O)C1(Nc2nccs2)Sc2ccccc2NC1=O (configuration not stated)	active: 8.2 µM	–
COC(=O)CSC1=C(C#N)C(c2cccc(F)c2)CC(=O)N1 (configuration not stated)	inconclusive [cytotoxic, single point]	–
C=CC[C@H]1CC(Cc2ccccc2)=C[C@H](CC=C)N1	inactive	–
C=CCNC(=O)/C(C#N)=C/c1c(N2CCN(c3cccc(Cl)c3)CC2)nc2c(C)cccn2c1=O	inactive	–

Structure (SMILES)	Potency	activity, negative = toxicity
CCc1nnc(NS(=O)(=O)c2ccc(NC(=S)NC(=O)/C=C/c3ccc(C(C)C)cc3)cc2)s1	inconclusive [cytotoxic, single point]	–
CCOc1ccc(Cc2n[nH]c(=S)n2Cc2ccccc2)cc1	inactive	–
O=C(NC(=S)Nc1ccccc1O)c1ccc(-c2ccc(Cl)cc2)o1	inconclusive [cytotoxic, single point]	–
O=C(c1cc(-c2ccco2)on1)N1CCN(c2ccccc2)CC1	inconclusive [cytotoxic, single point]	–
Cc1ccc(S(=O)(=O)N2CCCCC2CCNC(=O)C(=O)NCc2ccco2)cc1 (configuration not stated)	active: 13 µM	–
Cc1ccc2cccnc2c1NC(=S)NC(=O)c1ccccc1	inconclusive [cytotoxic, single point]	–
CC[C@@H]1CCC[C@@H](O)[C@@H](C)C(=O)O[C@H](C)[C@@H](C)C/C=C(C)/C(OC)=C\C(=O)N(C)C([C@@H](C)CC)C(=O)N(C)[C@@H](C(C)C)C(=O)N(C)[C@@H](COC)C(=O)N2CCC[C@H]2C(=O)N(C)[C@@H](C(C)C)C(=O)N2CCC[C@H]2C(=O)O1 (some centres not stated)	inconclusive [cytotoxic, partial curve]	–
Cc1ccccc1C(=O)c1c[nH]c(C(=O)N2CCN(c3ccccc3F)CC2)c1	inconclusive [cytotoxic, partial curve, poor fit]	–
O=C(NCC(=O)N1CC(O)CC1C(=O)N1CCCC1C(=O)OCc1ccccc1)OCc1ccccc1 (configuration not stated)	inconclusive [cytotoxic, single point]	–
Cc1ccc(OCCN2CCN(C(=O)CCC(=O)Nc3nnc(CC(C)C)s3)CC2)cc1	active: 9.2 µM	–
CCOc1cc(C2C(C#N)=C(N)OC(C)=C2C(C)=O)c(Br)c(Br)c1OC(C)C (configuration not stated)	active: 14.6 µM	–
OC(c1ccccc1)c1nc(-c2cccc(F)c2)cs1 (configuration not stated)	inconclusive [cytotoxic, single point]	–
Cn1c(=O)n(CCc2ccccc2)c(=O)c2c1ncn2Cc1ccccc1	inconclusive [cytotoxic, single point]	–
O=C(c1cccs1)N1C[C@H](n2cc(-c3ccc(F)cc3)nn2)[C@@H](O)C[C@@H]1c1ccc(Cl)cc1	inconclusive [cytotoxic, partial curve]	–
O=c1c2ccccc2nc2c3ccccc3c(NCc3ccco3)nn12	inactive	–
CC(=O)c1ccc(-c2cnc3c(NC=O)cc(-c4cnn(C)c4)cn23)cc1	inconclusive [cytotoxic, partial curve]	–
O=C(NCc1ccc(C(F)(F)F)cc1)C1CC(c2ccc(C(F)(F)F)cc2)=NO1 (configuration not stated)	inconclusive [cytotoxic, single point]	–
O=C(N/N=C/c1cccc(OC(=O)c2ccccc2Cl)c1)c1cccnc1	inconclusive [cytotoxic, partial curve]	–
O=C(NCc1cccc(F)c1)Nc1nnc([C@@H]2C[C@H](O)[C@@H](CO)O2)s1	inconclusive [rising, single point]	–
O=C(NCc1ccc(Cl)cc1)C(=O)c1c[nH]c2ccccc12	inactive	–
CN(C)S(=O)(=O)c1cccc(NC(=O)COC(=O)C2(c3ccccc3F)CCCC2)c1	inconclusive [cytotoxic, single point]	–
